Test results published in PubChem BioAssay (NCATS).
This list was built around the results that the source calls inconclusive (neither active nor inactive); the mix of calls is not that of the screen. For part of these data: Potencies of inconclusive entries are left out as doubtful fits. For part of these data: “Side channel” marks fits to a control or component signal instead of the main read-out. The source made the active and inactive calls. Unless noted, calls come from the whole dose curve.

Experiments:
[1] = target: Estrogen receptor (Homo sapiens) (UniProt P03372); test: qHTS assay for small molecule antagonists of estrogen receptor alpha signaling (AID 588513; active = well fitted curve in the direction sought with a large enough effect in the signal ratio, with a control signal flat, not every such curve was filed as active; inconclusive = small, poorly fitted or top-dose-only effect, or effect the other way, or a change in a side signal; inactive = no such curve, though single readings can be large or run the other way; the % refers to the signal ratio; note: potency is the fitted concentration of half-maximal effect; for activity, negative = inhibition: % is set by controls: 0 for no effect and ±100 for the full control effect); details: ER-alpha-UAS-bla HEK293, beta-lactamase ratio, antagonist mode; activity, negative = inhibition: at 76.9 µM (top of the series) unless noted
Summary of the method: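 ER-alpha-UAS-bla GripTite HEK 293 cells in 2% charcoal/dextran-treated FBS medium; compounds titrated (1:2, duplicate), then stimulated with 0.5 nM 17-beta-estradiol for 18 h at 37C. CCF4 beta-lactamase fluorescence; Hill-fit IC50 and efficacy.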

[2] = target: Androgen receptor (Homo sapiens) (UniProt P10275); test: qHTS assay for small molecule agonists of androgen receptor signaling (AID 588515; active = well fitted curve in the direction sought with a large enough effect in the signal ratio, with a control signal flat; inconclusive = small, poorly fitted or top-dose-only effect, or effect the other way, or a change in a side signal; inactive = no such curve, though single readings can be large or run the other way; the % refers to the signal ratio; note: potency is the fitted concentration of half-maximal effect); details: AR-UAS-bla HEK293, beta-lactamase ratio, agonist 16 h; activation: active compounds read high
Summary of the method: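 EC50 and efficacy came from Hill fits of titrations (up to 92 uM) normalized to 30 nM R1881 as 100% and DMSO as 0%. Compound exposure was 16 h at 37 C on AR-UAS-bla HEK293 cells, with a 405/460/530 nm CCF4 fluorescence read.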

[3] = target: Androgen receptor (Homo sapiens) (UniProt P10275); test: qHTS assay for small molecule antagonists of androgen receptor signaling (AID 588516; active = well fitted curve in the direction sought with a large enough effect in the signal ratio, with a control signal flat, not every such curve was filed as active; inconclusive = small, poorly fitted or top-dose-only effect, or effect the other way, or a change in a side signal; inactive = no such curve, though single readings can be large or run the other way; the % refers to the signal ratio; note: % is set by controls: 0 for no effect and ±100 for the full control effect); details: AR-UAS-bla HEK293, beta-lactamase ratio, antagonist mode, 16 h; activity change, negative = inhibition: at 76.8 µM (top of the series)
Summary of the method: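 Cells were plated and incubated 5 h, compounds added in titration, then R1881 (10 nM final) as agonist. After 16 h at 37 C, CCF4 substrate was loaded for 2 h at room temperature and fluorescence measured.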

[4] = target: Bile acid receptor (Homo sapiens) (UniProt Q96RI1); test: qHTS assay for small molecule antagonists of farnesoid X receptor signaling (AID 588526); details: HEK293T FXR-UAS-bla, beta-lactamase ratio, antagonist mode; activity change, negative = inhibition: at 76.7 µM (top of the series); note: potency is the fitted concentration of half-maximal effect
Summary of the method: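 Beta-lactamase reporter antagonist mode: HEK293T FXR-UAS-bla cells, titrated compound, CDCA stimulation, 16 h 37 C, CCF4 dye 2 h RT. Data normalized to CDCA 50 uM and DMSO; Hill-fit IC50.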

[5] = target: Bile acid receptor (Homo sapiens) (UniProt Q96RI1); test: qHTS assay for small molecule agonists of farnesoid X receptor signaling (AID 588527); details: HEK293T FXR-UAS-bla, beta-lactamase ratio, 16 h; activation: active compounds read high; note: potency is the fitted concentration of half-maximal effect
Summary of the method: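 FXR-UAS-bla HEK293T cells (10% dialyzed FBS) preincubated 5-7 h at 37 C, then compounds at up to 92 uM for 16 h at 37 C. CCF4 beta-lactamase read-out after 2 h RT. Normalized to chenodeoxycholic acid (100 uM) and DMSO; Hill fit gave EC50 and efficacy.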

[6] = target: Peroxisome proliferator-activated receptor delta (Homo sapiens) (UniProt Q03181); test: qHTS assay for small molecule agonists of peroxisome proliferator-activated receptor delta signaling (AID 588534); details: HEK293T PPARdelta-UAS-bla, beta-lactamase ratio, 18 h; activation: at 76.7 µM (top of the series) unless noted; note: potency is the fitted concentration of half-maximal effect
Summary of the method: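 Cells carrying a PPAR-delta beta-lactamase reporter were treated with compounds for 18 h at 37 °C in agonist mode. CCF4 fluorescence was read after 2 h; EC50 and efficacy from Hill fits.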

[7] = target: Peroxisome proliferator-activated receptor delta (Homo sapiens) (UniProt Q03181); test: qHTS assay for small molecule antagonists of peroxisome proliferator-activated receptor delta signaling (AID 588535; active = well fitted inhibition curve with a large enough effect in the signal ratio, with a control signal flat, not every such curve was filed as active; inconclusive = small, poorly fitted or top-dose-only effect, or effect the other way, or a change in a side signal; inactive = no such curve, though single readings can be large or run the other way; the % refers to the signal ratio; note: potency is the fitted concentration of half-maximal effect); details: HEK293T PPARd-UAS-bla, beta-lactamase FRET ratio, 18 h; activity change, negative = inhibition: at 76.7 µM (top of the series) unless noted
Summary of the method: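 HEK293T PPAR-delta-UAS-bla cells, 4000/well, 2% charcoal/dextran FBS; 5 h 37 C; cpd titration; 18 h 37 C; CCF4 2 h RT; FI 460/530 nm; Hill fit → IC50, efficacy.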

[8] = target: Peroxisome proliferator-activated receptor gamma (Homo sapiens) (UniProt P37231); test: qHTS assay for small molecule agonists of peroxisome proliferator-activated receptor gamma signaling (AID 588536; active = well fitted curve in the direction sought with a large enough effect in the signal ratio, with a control signal flat, not every such curve was filed as active; inconclusive = small, poorly fitted or top-dose-only effect, or effect the other way, or a change in a side signal; inactive = no such curve, though single readings can be large or run the other way; the % refers to the signal ratio; note: potency is the fitted concentration of half-maximal effect); details: HEK293 PPARg-UAS-bla, beta-lactamase ratio, 16 h; activation: at 76.7 µM (top of the series), percent of rosiglitazone response, DMSO as zero
Summary of the method: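 GeneBLAzer PPAR-gamma-UAS-bla HEK293 cells in 1% charcoal/dextran-treated FBS medium were treated 16 h at 37 C with compounds. Beta-lactamase activity was read by CCF4 ratio (460/530 nm). Response was normalized to 2 uM rosiglitazone (100%) and DMSO, then Hill-fitted for EC50 and efficacy.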

[9] = target: Peroxisome proliferator-activated receptor gamma (Homo sapiens) (UniProt P37231); test: qHTS assay for small molecule antagonists of peroxisome proliferator-activated receptor gamma signaling (AID 588537; active = well fitted inhibition curve with a large enough effect in the signal ratio, with a control signal flat, not every such curve was filed as active; inconclusive = small, poorly fitted or top-dose-only effect, or effect the other way, or a change in a side signal; the % refers to the signal ratio;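 note: reporter cells co-stimulated with 50 nM rosiglitazone agonist during compound treatment; potency is the fitted concentration of half-maximal effect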); details: HEK293 PPARg-UAS-bla, beta-lactamase ratio, antagonist mode; activity, negative = inhibition: at 76.8 µM (top of the series) unless noted
Summary of the method: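 Antagonist mode, beta-lactamase reporter in HEK293; charcoal/dextran FBS 1%; 3000 cells/well, 37 C 6-6.5 h; cpd titration + rosiglitazone 50 nM final, 16 h 37 C; CCF4, 2 h RT; 460/530 nm; Hill fit → IC50, efficacy.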

[10] = target: Vitamin D3 receptor (Homo sapiens) (UniProt P11473); test: qHTS assay for small molecule antagonists of vitamin D receptor signaling (AID 588541); details: HEK293T VDR-UAS-bla, beta-lactamase ratio, antagonist mode; activity change, negative = inhibition: at 76.7 µM (top of the series); note: potency is the fitted concentration of half-maximal effect
[11] = target: Thyroid hormone receptor beta (Homo sapiens) (UniProt P10828); test: qHTS assay for small molecule agonists of thyroid hormone receptor beta signaling (AID 588545); details: TR-UAS-bla GripTite HEK 293, beta-lactamase ratio, agonist mode, 18 h; activation: at 76.7 µM, percent of T3 response, DMSO as zero; note: potency is the fitted concentration of half-maximal effect
Summary of the method: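 Agonist-mode beta-lactamase reporter assay, HEK 293 cells, 2% charcoal/dextran FBS; cells plated 4 hrs, compound 18 hrs at 37 C, CCF4 2 hrs RT. Normalized to 10 nM T3 (100%) and DMSO (0%); Hill fit gives EC50, efficacy.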

[12] = target: Thyroid hormone receptor beta (Homo sapiens) (UniProt P10828); test: qHTS assay for small molecule antagonists of thyroid hormone receptor beta signaling (AID 588547; active = well fitted inhibition curve with a large enough effect in the signal ratio, with a control signal flat, not every such curve was filed as active; inconclusive = small, poorly fitted or top-dose-only effect, or effect the other way, or a change in a side signal; the % refers to the signal ratio; note: potency is the fitted concentration of half-maximal effect); details: TR-UAS-bla HEK293, beta-lactamase ratio, antagonist mode, 18 h
Summary of the method: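 Inhibition of T3-driven (0.4nM final) beta-lactamase reporter activity was measured over 0.59 nM to 92 uM compound after 18 h at 37 C. The cells were GripTite HEK293 TR-UAS-bla in charcoal/dextran-stripped serum, with CCF4 ratio read-out and IC50 from Hill fits.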

[13] = qHTS assay for small molecule agonists of the antioxidant response element (ARE) signaling pathway (AID 651741; active = well fitted activation curve with a large enough effect in the signal ratio; inconclusive = small, poorly fitted or top-dose-only effect, or effect the other way, or a change in a side signal; the % refers to the signal ratio; note: potency is the fitted concentration of half-maximal effect; for activation: % of control where 0% means no effect); details: HepG2 ARE-bla reporter, beta-lactamase FRET ratio, 16 h; activation: at 96 µM (top of the series) unless noted
Summary of the method: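 Quantitative HTS in HepG2 cells stably expressing an ARE-beta-lactamase reporter; 16 h compound exposure at 37 C, followed by 2 h room-temperature incubation with LiveBLAzer B/G FRET substrate and fluorescence measurement.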

[14] = target: Peroxisome proliferator-activated receptor alpha (Homo sapiens) (UniProt Q07869); test: qHTS assay for small molecule agonists of the peroxisome proliferator-activated receptor alpha (PPARalpha) signaling pathway (AID 651778; active = well fitted curve in the direction sought with a large enough effect; inconclusive = small, poorly fitted or top-dose-only effect, or another doubt; inactive = no such curve, though single readings can be large; an effect the other way counts as inactive or inconclusive; note: potency is the fitted concentration of half-maximal effect); details: PathHunter PPARalpha complementation, chemiluminescence, 6 h; max response: active compounds read high
Summary of the method: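 Chemiluminescence from complemented enzyme reported PPARalpha activation in cells after 6 hr of compound treatment at 37 C. The detection reagent was incubated for 60 min at room temperature, and compounds were scored as agonists.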

[15] = qHTS assay for small molecule agonists of the antioxidant response element (ARE) signaling pathway measured by Nrf2-dependant transcriptional activity (AID 720636; active = well fitted curve in the direction sought with a large enough effect in the repeat runs; inconclusive = weak or mixed curves; inactive = no such curve, though single readings can be large; an effect the other way counts as inactive or inconclusive;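 note: HepG2 cells with an ARE-driven luciferase reporter; % of control where 0% means no effect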)
Summary of the method: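 Reporter gene assay, HepG2 ARE-luc: 16 hr compound, 37 C, 5% CO2; read-out luciferase luminescence.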

[16] = qHTS assay for small molecule agonists of the antioxidant response element (ARE) signaling pathway measured by Nrf2-dependant transcriptional activity - cell viability counter screen (AID 720653; active = well fitted curve in the direction sought with a large enough effect in the repeat runs; inconclusive = weak or mixed curves; inactive = no such curve, though single readings can be large; an effect the other way counts as inactive or inconclusive; note: potency is the fitted concentration of half-maximal effect); details: ARE-bla HepG2 viability, CellTiter-Glo ATP luminescence, 16 h; max response: active compounds read low
Summary of the method: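 Cytotoxicity counter screen: intracellular ATP quantified by CellTiter-Glo luminescence in the same ARE-bla HepG2 plates, after 16 h compound exposure and a 2 h beta-lactamase substrate step.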

[17] = qHTS assay for cell viability of HEK293 cells (AID 743288; active = well fitted curve in the direction sought with a large enough effect; inconclusive = small, poorly fitted or top-dose-only effect, or another doubt; inactive = no such curve, though single readings can be large; an effect the other way counts as inactive or inconclusive; note: potency is the fitted concentration of half-maximal effect; nearly all actives have a fitted effect of over 50% in size); details: ATP luminescence (CellTiter-Glo), 18 h; max response: active compounds read low
Summary of the method: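 Parental HEK293 cells, 2,000 per well, preincubated at least 5 h at 37 C, then exposed to compounds in DMSO for 18 h at 37 C. Viability by CellTiter-Glo ATP luminescence after 30 min at room temperature.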

[18] = qHTS assay for cell viability of the p53RE-bla HCT-116 cell line (AID 743292; active = well fitted curve in the direction sought with a large enough effect; inconclusive = small, poorly fitted or top-dose-only effect, or another doubt; inactive = no such curve, though single readings can be large; an effect the other way counts as inactive or inconclusive; note: potency is the fitted concentration of half-maximal effect; nearly all actives have a fitted effect of over 55% in size)
Summary of the method: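 Readout: CellTiter-Glo luminescence after 30 min RT. Treatment: compounds in DMSO, 16 h, 37 C. Cells: CellSensor p53RE-bla HCT-116, 4,000/well, preincubated 5 h.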

[19] = MultiTox-Fluor Cytotoxicity Assay - LYMP1-001 - Live Cells (AID 947; active = well fitted curve in the direction sought with a large enough effect; inconclusive = small, poorly fitted or top-dose-only effect, or another doubt; inactive = no such curve, though single readings can be large; an effect the other way counts as inactive or inconclusive; note: potency is the fitted concentration of half-maximal effect)
[20] = Cell Viability - LYMP2-019 (AID 973; active = well fitted curve in the direction sought with a large enough effect; inconclusive = small, poorly fitted or top-dose-only effect, or another doubt; inactive = no such curve, though single readings can be large; an effect the other way counts as inactive or inconclusive;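 note: cells exposed to compound for 24 h at 37 °C; 0% = DMSO alone and full effect = 92 µM tetraoctylammonium bromide; nearly all actives have a fitted effect of over 55% in size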)
Summary of the method: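 Human lymphoblastoid LYMP2-019 cells (2500/well) preincubated 5 h at 37 C, then treated 24 h at 37 C in complete medium. Viability by CellTiter-Glo ATP luminescence after 30 min at room temperature; AC50 from Hill fits.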

[21] = target: Estrogen receptor (Homo sapiens) (UniProt P03372); test: qHTS assay for small molecule agonists of estrogen receptor alpha signaling (AID 588514); details: ER-alpha-UAS-bla HEK293, beta-lactamase ratio, 18 h; activation: at 76.8 µM (top of the series), percent of full estradiol response, vehicle zero unless noted; note: potency is the fitted concentration of half-maximal effect; nearly all actives have a fitted effect of over 70% in size
Summary of the method: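 ER-alpha-UAS-bla GripTite HEK293 cells, 5000/well in 2% charcoal/dextran-stripped FBS medium, treated with compound titrations 18 h at 37 C. CCF4 beta-lactamase read by fluorescence after 2 h RT; normalised to 20 nM 17-beta-estradiol (100%) and DMSO (0%), Hill fit for EC50 and efficacy.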

[22] = qHTS assay to identify small molecules that stimulate interleukin-8 (IL-8) secretion (AID 651758; active = well fitted activation curve with a large enough effect in the signal ratio; inconclusive = small, poorly fitted or top-dose-only effect, or effect the other way, or a change in a side signal; the % refers to the signal ratio; note: 0% is about no effect); details: HTRF ratio (665/615); activation: at 92.2 µM (top of the series)
Summary of the method: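 Secreted IL-8 measured by TR-FRET sandwich (cryptate and XL665 antibodies) from THP-1 cells exposed to compound overnight (16 hrs, 37 C).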
Tags give direction and shape of the fitted curve or compound fluorescence and quenching.

Chain of UniProt P03372 (P03372 whole entry, looked up): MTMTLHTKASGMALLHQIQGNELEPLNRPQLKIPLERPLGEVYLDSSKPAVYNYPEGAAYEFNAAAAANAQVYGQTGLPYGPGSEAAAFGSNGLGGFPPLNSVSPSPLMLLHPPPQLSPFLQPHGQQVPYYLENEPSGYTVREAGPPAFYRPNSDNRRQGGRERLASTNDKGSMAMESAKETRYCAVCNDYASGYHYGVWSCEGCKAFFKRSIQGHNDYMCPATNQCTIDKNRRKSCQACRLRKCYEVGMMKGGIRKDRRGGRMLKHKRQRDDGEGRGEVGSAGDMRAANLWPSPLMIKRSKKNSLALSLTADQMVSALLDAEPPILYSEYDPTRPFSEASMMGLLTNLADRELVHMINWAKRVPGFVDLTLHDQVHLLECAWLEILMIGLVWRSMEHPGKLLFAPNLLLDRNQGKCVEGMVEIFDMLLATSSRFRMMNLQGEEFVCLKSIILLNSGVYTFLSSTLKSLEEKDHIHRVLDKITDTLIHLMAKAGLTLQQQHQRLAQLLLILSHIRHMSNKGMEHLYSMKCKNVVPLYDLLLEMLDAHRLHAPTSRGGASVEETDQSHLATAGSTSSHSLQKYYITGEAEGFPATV
Chain of UniProt Q03181 (Q03181 whole entry, looked up): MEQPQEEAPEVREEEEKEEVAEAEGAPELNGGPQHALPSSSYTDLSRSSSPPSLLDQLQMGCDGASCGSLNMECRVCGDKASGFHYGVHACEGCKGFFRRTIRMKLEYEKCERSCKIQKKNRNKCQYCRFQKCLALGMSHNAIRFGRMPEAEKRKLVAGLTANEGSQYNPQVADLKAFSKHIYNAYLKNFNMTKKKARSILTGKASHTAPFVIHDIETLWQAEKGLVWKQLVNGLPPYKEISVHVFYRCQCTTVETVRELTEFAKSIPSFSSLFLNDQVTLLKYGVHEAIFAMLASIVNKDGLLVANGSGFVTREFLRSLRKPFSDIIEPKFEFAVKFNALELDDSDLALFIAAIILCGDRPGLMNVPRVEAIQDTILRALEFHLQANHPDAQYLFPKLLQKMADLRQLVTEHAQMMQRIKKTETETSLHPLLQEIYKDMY
Chain of UniProt P10275 (P10275 whole entry, looked up): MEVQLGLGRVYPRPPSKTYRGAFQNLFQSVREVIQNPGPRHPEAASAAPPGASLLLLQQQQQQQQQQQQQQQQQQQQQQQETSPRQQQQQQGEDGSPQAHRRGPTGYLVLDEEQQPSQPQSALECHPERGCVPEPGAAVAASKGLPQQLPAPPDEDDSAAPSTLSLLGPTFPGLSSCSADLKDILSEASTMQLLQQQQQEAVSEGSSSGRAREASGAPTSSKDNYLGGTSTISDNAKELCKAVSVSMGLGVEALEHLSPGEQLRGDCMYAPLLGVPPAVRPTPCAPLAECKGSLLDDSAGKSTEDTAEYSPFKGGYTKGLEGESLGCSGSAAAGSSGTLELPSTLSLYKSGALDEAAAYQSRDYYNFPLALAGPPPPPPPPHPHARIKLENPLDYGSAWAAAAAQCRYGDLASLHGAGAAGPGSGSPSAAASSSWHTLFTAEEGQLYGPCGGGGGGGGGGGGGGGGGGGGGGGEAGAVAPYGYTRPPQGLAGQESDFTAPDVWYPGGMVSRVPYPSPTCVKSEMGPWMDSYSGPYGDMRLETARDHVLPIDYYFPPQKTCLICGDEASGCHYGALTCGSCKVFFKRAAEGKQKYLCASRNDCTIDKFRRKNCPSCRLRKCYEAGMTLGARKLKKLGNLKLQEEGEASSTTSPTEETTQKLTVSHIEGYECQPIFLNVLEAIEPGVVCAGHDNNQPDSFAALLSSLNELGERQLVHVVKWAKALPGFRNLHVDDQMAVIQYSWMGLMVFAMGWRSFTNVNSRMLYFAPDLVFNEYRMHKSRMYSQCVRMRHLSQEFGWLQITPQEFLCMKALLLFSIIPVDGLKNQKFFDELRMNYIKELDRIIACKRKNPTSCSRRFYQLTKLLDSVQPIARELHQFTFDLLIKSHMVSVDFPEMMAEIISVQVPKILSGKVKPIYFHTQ
Chain of UniProt P10828 (P10828 whole entry, looked up): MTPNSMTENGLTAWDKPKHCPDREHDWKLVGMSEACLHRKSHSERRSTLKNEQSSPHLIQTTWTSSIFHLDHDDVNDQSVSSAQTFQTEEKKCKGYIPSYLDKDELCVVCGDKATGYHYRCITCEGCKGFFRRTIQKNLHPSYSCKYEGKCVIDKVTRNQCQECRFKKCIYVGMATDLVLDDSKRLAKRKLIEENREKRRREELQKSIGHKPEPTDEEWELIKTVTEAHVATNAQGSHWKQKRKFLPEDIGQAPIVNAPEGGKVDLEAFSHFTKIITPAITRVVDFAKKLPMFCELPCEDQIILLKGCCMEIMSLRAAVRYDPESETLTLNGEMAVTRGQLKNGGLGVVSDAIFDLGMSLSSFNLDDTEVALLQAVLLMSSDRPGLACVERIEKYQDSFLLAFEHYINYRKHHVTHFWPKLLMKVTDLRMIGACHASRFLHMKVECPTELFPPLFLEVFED
Chain of UniProt Q07869 (Q07869 whole entry, looked up): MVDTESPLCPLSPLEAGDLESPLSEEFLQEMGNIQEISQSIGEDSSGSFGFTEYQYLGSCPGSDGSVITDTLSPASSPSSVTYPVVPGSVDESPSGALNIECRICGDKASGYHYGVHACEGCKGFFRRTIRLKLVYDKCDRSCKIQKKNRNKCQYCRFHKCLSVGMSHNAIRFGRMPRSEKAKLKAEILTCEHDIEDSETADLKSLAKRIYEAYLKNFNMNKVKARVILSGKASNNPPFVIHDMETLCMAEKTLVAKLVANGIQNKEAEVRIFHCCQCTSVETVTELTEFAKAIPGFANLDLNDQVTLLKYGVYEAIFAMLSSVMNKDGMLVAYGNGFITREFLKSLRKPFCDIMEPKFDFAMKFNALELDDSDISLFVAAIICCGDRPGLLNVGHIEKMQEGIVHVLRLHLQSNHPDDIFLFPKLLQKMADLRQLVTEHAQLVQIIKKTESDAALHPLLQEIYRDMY

Structure (SMILES): Cc1ccc(S(=O)(=O)C(I)I)cc1
- Potency [1]: inconclusive [side channel, rising, single point]
- Potency [2]: inconclusive [side channel]
- activity change, negative = inhibition [3]: inconclusive: -142%
- Potency [4]: inconclusive [side channel]
- Potency [5]: inconclusive [side channel, rising, single point]
- Potency [6]: inconclusive [fluorescent, side channel, partial curve]
- Potency [7]: inconclusive [side channel, rising, full curve]
- Potency [8]: inconclusive [falling, partial curve]
- Potency [9]: inconclusive [side channel, rising, partial curve, poor fit]
- Potency [10]: inconclusive [falling, full curve]
- Potency [11]: inconclusive [side channel, rising, full curve, poor fit]
- Potency [12]: inconclusive [side channel, rising, single point]
- activation [13]: inconclusive: -29.1%
- Potency [14]: inconclusive [activator, single point]
- Potency [15]: inactive
- Potency [16]: inconclusive [cytotoxic, partial curve, poor fit]
- Potency [17]: inconclusive [cytotoxic, partial curve, poor fit]
- Potency [18]: inconclusive [cytotoxic, partial curve, poor fit]

Structure (SMILES): C=CCCCCCC
- Potency [19]: inconclusive [cytotoxic, full curve, poor fit]
- Potency [20]: inactive
- Potency [1]: inactive
- Potency [21]: active: 12.6 µM
- Potency [13]: inconclusive [activator, single point]
- activation [22]: inconclusive: 5.5%
